Assay results taken from the supplement of paper PMC12217912.
The other results are listed elsewhere or left out. Sequences were assembled here from the parent chain. Values near 0.05 are background.

B1: TEV protease; numbered along this chain (parent)
chain: MGESLFKGPRDYNPISSSICHLTNESDGHTTSLYGIGFGPFIITNKHLFRRNNGTLVVQSLHGVFKVKDTTTLQQHLVDGRDMIIIRMPKDFPPFPQKLKFREPQREERICLVTTNFQTKSMSSMVSDTSCTFPSGDGIFWKHWIQTKDGQCGSPLVSTRDGFIVGIHSASNFTNTNNYFTSVPKNFMELLTNQEAQQWVSGWRLNADSVLWGGHKVFMVKPEEPFQPVKEATQL

Variants of: B1
Assay: raw area under fraction-flipped curve 0-4 h after induction (AUC4h, not background-subtracted), DNA-recorder readout of cleavage of the substrate (dimensionless); higher = more cleavage of the substrate by the protease variant
Settings: temperature: 34 °C; time window: 0-4 h after rhamnose induction
Method: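 In vivo DNA recorder in E. coli TOP10(DE3) ΔrhaA at 34 °C. Each TEVp single-site mutant (parent TEVp 0) is paired with a single-site variant of the 7-mer TEVs (canonical ENLYFQ|S). The substrate sits between flexible linkers in a Bxb1-sfGFP-TEVs-SsrA fusion, so cleavage stabilises Bxb1 and speeds flipping of a recombination array, read by NGS. The value is the raw area under the fraction-flipped curve over 0-4 h after rhamnose induction (AUC4h), with ≥20 reads per time point. It is not background-subtracted; inactive controls average about 0.047.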
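Also: Bxb1 expression induced with 0.2% (w/v) L-rhamnose at OD600 near 0.5, cultures sampled hourly, flipped fraction per protease–substrate barcode pair counted by paired-end Illumina sequencing.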

Variant	area with substrate ENLYFAS	area with substrate ENLYFDS	area with substrate ENLYFES	area with substrate ENLYFHS	area with substrate ENLYFIS	area with substrate ENLYFNS	area with substrate ENLYFPS	area with substrate ENLYFSS	area with substrate ENLYFTS	area with substrate ENLYFYS	area with substrate ENLYFCS	area with substrate ENLYFRS	area with substrate ENLYFVS	area with substrate ENLYFWS	area with substrate ENLYFMS	area with substrate ENLYFFS	area with substrate ENLYFKS	area with substrate ENLYFLS	area with substrate ENLYFGS
N116C	0.0612	0.0618	0.0571	0.0351	0.0642	0.0529	0.0444	0.0675	0.0609	0.053	–	–	–	–	–	–	–	–	–
F117L	0.0634	–	0.0693	–	0.0675	–	0.068	–	–	0.0491	0.0585	0.0536	0.0613	0.053	–	–	–	–	–
T119F	0.0511	0.0514	–	–	0.0621	0.0727	0.0665	0.0562	–	–	0.0644	–	–	–	0.0633	–	–	–	–
K120A	0.0463	–	–	0.0581	0.0526	0.0545	0.0511	–	0.0668	–	–	0.0648	0.0519	–	–	0.0702	0.0741	–	–
K120E	0.0564	0.0503	0.0632	0.064	0.0584	–	0.0525	–	–	–	–	0.0626	–	0.0337	0.0689	0.0682	0.0517	0.0414	–
K120N	0.0575	–	0.0665	–	0.0661	0.0593	–	–	0.0474	–	0.0626	0.0553	–	0.0584	–	0.0914	0.0715	–	0.071
S121Q	0.0534	0.0554	0.0748	0.0657	0.0647	0.0683	0.0597	0.0682	0.0573	–	0.0734	0.0544	0.0543	0.0527	0.0783	0.0649	0.065	0.0537	0.0607
S121T	0.0477	–	0.0902	–	0.066	–	0.0613	–	–	–	–	–	–	–	–	–	–	–	–
S123W	0.055	0.0661	0.0597	0.0644	0.0616	0.0649	0.0523	–	0.0532	0.0587	0.0597	0.0573	0.0631	0.0579	0.0537	0.0559	0.059	–	0.068
S124K	0.0628	0.0468	0.0624	–	0.056	0.0609	0.0591	–	0.0567	0.0511	0.0627	–	0.0531	0.0641	0.0637	0.0546	0.0524	0.0629	0.0498
M125D	0.0606	0.0667	0.0665	0.0595	0.0567	0.0599	0.023	–	0.0568	0.0735	0.0409	0.0678	0.0499	0.0519	0.0713	0.0742	0.0572	0.0581	0.0657
V126T	0.0497	–	0.0613	–	0.061	0.0566	–	0.0523	0.0494	0.0604	0.0676	–	–	–	0.072	0.0447	0.0632	0.0529	0.0521
S127T	0.0599	0.0634	0.0609	0.0584	0.0598	0.0531	0.0622	–	–	–	0.0517	–	–	0.0645	0.0653	0.0552	0.0617	–	0.0618
D128G	0.036	–	–	–	–	–	–	–	–	–	–	–	–	–	0.0734	–	–	–	–
D128S	0.0607	–	0.0733	–	0.0553	0.055	0.0542	–	–	–	–	0.0684	0.0337	0.0372	0.0626	0.0739	–	–	0.0571
S130R	0.0454	–	–	0.0527	0.0457	0.0481	0.0581	0.0536	0.0427	–	0.059	0.0733	–	–	0.0684	0.0637	0.0644	–	0.0441
T132D	0.0445	0.0496	0.0499	0.0586	0.0435	0.0534	0.0523	0.0598	0.0433	0.0503	0.0469	0.0612	0.0491	0.0466	0.0539	0.0576	–	0.045	–
T132M	0.0519	0.0488	0.0608	0.062	0.051	0.0583	0.0465	0.0603	0.0615	0.0369	0.063	0.0565	0.0471	–	0.0674	0.0565	0.0601	0.0759	0.0687
F133G	0.0093	–	0.0804	0.0472	0.0604	0.0664	0.0597	–	–	–	0.0716	0.0593	–	0.0636	0.0696	0.0752	0.067	–	–
P134C	0.0408	0.0643	0.0719	0.0578	0.0602	0.0598	0.0527	0.07	0.0541	0.0536	0.0616	0.0669	–	0.062	0.066	0.0706	–	0.0482	0.0584
G136F	0.0665	0.0576	0.0981	0.0663	0.0583	0.0569	0.0697	0.059	0.0574	–	–	0.0674	0.0464	0.0632	0.0573	0.0783	0.0594	0.0627	0.0596
G136K	0.0711	–	0.0677	–	0.0458	0.0727	0.07	0.0595	–	–	0.0706	0.0626	0.0617	0.0561	0.0665	0.0615	0.0513	0.0604	–
G136V	0.0605	0.0533	0.0704	–	0.054	0.0732	0.0674	–	0.0481	–	0.0808	0.0525	–	–	0.0825	0.0717	0.0598	–	–
G138R	0.0713	0.0582	0.068	0.0461	0.0523	0.0609	–	–	–	0.0602	–	0.0518	–	–	0.0534	0.0393	–	0.0619	–
K142Y	0.0447	–	0.0738	–	0.0455	0.0638	0.0569	–	–	–	–	0.0452	0.0605	–	0.0566	0.0631	–	–	–
W144A	0.0714	–	0.0819	0.0513	0.0609	–	0.0662	0.0785	0.0325	0.0543	0.0917	–	–	–	0.0728	0.0829	0.0769	0.0683	–
W144D	0.0649	–	0.0634	–	0.0588	0.0572	0.0753	–	0.0604	0.0517	0.0606	0.062	–	0.0364	0.0699	0.0628	0.0592	0.0688	0.0569
